B1: unnamed (parent)
chain 1: MLPYTVNFKVSARTLTGALNAHNKAAVDWGWQGLIAYGCHSLVVVIDSITAQTLQVLEKHKADVVKVKWARENYHHNIGSPYCLRLASADVNGKIIVWDVAAGVAQCEIQEHAKPIQDVQWLWNQDASRDLLLAIHPPNYIVLWNADTGTKLWKKSYADNILSFSFDPFDPSHLTLLTSEGIVFISDFSPSKPPSGPGKKVYISSPHSSPAHNKLATATGAKKALNKVKILITQEKPSAEFITLNDCLQLAYLPSKRNHMLLLYPREILILDLEVNQTVGVIAIERTGVPFLQVIPCFQRDGLFCLHENGCITLRVRRSYNNIFTTSNEEPDPDPVQELTYDLRSQCDAIRVTKTVRPFSMVCCPVNENAAALVVSDGRVMIWELKSAVCNRNSRNSSSGVSPLYSPVSFCGIPVGVLQNKLPDLSLDNMIGQSAIAGEEHPRGSILREVHLKFLLTGLLSGLPAPQFAIRMCPPLTTKNIKMYQPLLAVGTSNGSVLVYHLTSGLLHKELSIHSCEVKGIEWTSLTSFLSFATSTPNNMGLVRNELQLVDLPTGRSIAFRGERGNDESAIEMIKVSHLKQYLAVVFRDKPLELWDVRTCTLLREMSKNFPTITALEWSPSHNLKSLRKKQLATREAMARQTVVSDTELSIVESSVISLLQEAESKSELSQNISAREHFVFTDIDGQVYHLTVEGNSVKDSARIPPDGSMGSITCIAWKGDTLVLGDMDGNLNFWDLKGRVSRGIPTHRSWVRKIRFAPGKGNQKLIAMYNDGAEVWDTKEVQMVSSLRSGRNVTFRILDVDWCTSDKVILASDDGCIRVLEMSMKSACFRMDEQELTEPVWCPYLLVPRASLALKAFLLHQPWNGQYSLDISHVDYPENEEIKNLLQEQLNSLSNDIKKLLLDPEFTLLQRCLLVSRLYGDESELHFWTVAAHYLHSLSQEKSASTTAPKEAAPRDKLSNPLDICYDVLCENAYFQKFQLERVNLQEVKRSTYDHTRKCTDQLLLLGQTDRAVQLLLETSADNQHYYCDSLKACLVTTVTSSGPSQSTIKLVATNMIANGKLAEGVQLLCLIDKAADACRYLQTYGEWNRAAWLAKVRLNPEECADVLRRWVDHLCSPQVNQKSKALLVLLSLGCFFSVAETLHSMRYFDRAALFVEACLKYGAFEVTEDTEKLITAIYADYARSLKNLGFKQGAVLFASKAGAAGKDLLNELESPKEEPIEE
chain 2: MCLAGCTPRKAAAPGRGALPRARLPRTAPAAATMFQPAAKRGFTIESLVAKDGGTGGGTGGGGAGSHLLAAAASEEPLRPTALNYPHPSAAEAAFVSGFPAAAAAGAGRSLYGGPELVFPEAMNHPALTVHPAHQLGASPLQPPHSFFGAQHRDPLHFYPWVLRNRFFGHRFQASDVPQDGLLLHGPFARKPKRIRTAFSPSQLLRLERAFEKNHYVVGAERKQLAGSLSLSETQVKVWFQNRRTKYKRQKLEEEGPESEQKKKGSHHINRWRIATKQANGEDIDVTSND

Variants of: B1
Experiment: co-immunoprecipitation (anti-Myc IP, anti-EMX1 immunoblot), densitometry of EMX1 band
Conditions: with partner chain of the complex shown; coexpressed in HEK293 cells; three independent experiments; parent: 3.6e+04; read off a plot

| Variant | response (Arbitrary units) |
| --- | --- |
| chain 1 I436V | 15000 |

Source: article PMC5505202
